# In PubChem BioAssay AID686979 (National Center for Advancing Translational Sciences (NCATS), 2013):
# About 50,000 (12%) of roughly 420,000 compounds were called active. This list was built around the results that the source calls inconclusive (neither active nor inactive); the mix of calls is not that of the screen. Calls follow the shape of the dose curve; as a rule, active = well fitted inhibition curve with a large enough effect; inconclusive = small, poorly fitted or top-dose-only effect; inactive = flat fitted curve, though single readings scatter. No potency is given beside an inconclusive call; the fits are too rough.
# Assay: qHTS for Inhibitors of human tyrosyl-DNA phosphodiesterase 1 (TDP1): qHTS in cells in presence of CPT; also: nearly all actives have a fitted effect of over 55% in size
# Conditions: chicken DT40 Tdp1-/-;hTDP1 cells + 20 nM CPT, ATP luminescence, 48 h; activity change, negative = growth inhibition: at 46.2 µM (top of the series) unless noted
# Outline: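 Cell growth measured by CellTiter-Glo luminescence after a minimum 48 h, 37 C compound exposure with 20 nM CPT in Tdp1-knockout DT40 cells stably expressing hTDP1, seeded 400/well; qHTS titration format.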
# % is scaled to controls: 0 for no effect and ±100 for the full control effect; potency is read from the fitted curve at half-maximal effect; tags tell the direction and shape of the fitted curve.
Compound,Potency,"activity change, negative = growth inhibition"
Cc1cccc(C)c1Nc1c(-c2ccc(Cl)s2)nc2ncccn12,"inconclusive [inhibitor, single point]",
CCOc1ccc2c(c1)C(C)=CC(C)(C)N2C(=O)Nc1ccccc1,active: 5.8 µM,
COc1ccc(C(=O)CSc2nnc(-c3ccco3)n2CC2CCCO2)cc1 (stereo unspecified),"inconclusive [inhibitor, single point]",
Cn1ncc2c(=O)n(/N=C/c3ccccc3)cnc21,inactive,
NC(=O)CC(NC(=O)Cc1cccc2ccccc12)c1ccc(NCCc2ccc(F)cc2)c([N+](=O)[O-])c1 (stereo unspecified),"inconclusive [inhibitor, single point]",
O=[N+]([O-])c1ccccc1Oc1ccc(S(=O)(=O)N2CCOCC2)cc1,"inconclusive [inhibitor, partial curve, poor fit]",
COCc1cc(C)n(CC(=O)Nc2ccccc2C(=O)OC)c(=O)c1C#N,inactive,
CCOc1ccc(-c2cc(NC(=O)Cn3ncc4c3-c3ccccc3OC4)on2)cc1OCC,inactive,
CCOC(=O)C1(CCc2ccccc2)CCN(Cc2nccn2CC)CC1,"inconclusive [inhibitor, single point]",
COc1ccc(-c2nnc(NC(=O)CSc3ccc(C)cc3)s2)cc1OC,"inconclusive [inhibitor, single point]",
Cc1cc(C(=O)Nc2ncc(C)s2)c2ccccc2n1,inactive,
Cc1cc(C)n2nc(SCc3nnc(SCc4ccccc4Cl)s3)nc2n1,"inconclusive [inhibitor, single point]",
Cc1ccc(C2(c3ccccc3)NC(=O)N(CC(=O)N3CC(=O)Nc4ccccc43)C2=O)cc1C (stereo unspecified),"inconclusive [inhibitor, single point]",
O=C(C1CCCO1)N1CCN(C(=S)Nc2cc(F)cc(F)c2)CC1 (stereo unspecified),inactive,
Cc1cc(C(=O)CSc2nc(N)cc(=O)[nH]2)c(C)n1CC1CCCO1 (stereo unspecified),active: 16.4 µM,
COC(=O)c1scc(-c2ccc(C)cc2)c1S(=O)(=O)Nc1cccc(C(F)(F)F)c1,"inconclusive [inhibitor, single point]",
CC(=O)Oc1ccc(C2=NN(c3ccccc3)C(c3ccccc3)C2)cc1 (stereo unspecified),inactive,
COc1ccc(N2CCN(C(CNS(=O)(=O)c3ccc4c(c3)OCCO4)c3ccco3)CC2)cc1 (stereo unspecified),active: 13 µM,
NS(=O)(=O)c1ccc(CCNC(=O)C2CCN(C(=O)Nc3ccccc3)CC2)cc1,,inconclusive: 3.41% [inhibitor]
COc1ccc(S(=O)(=O)N2CCOC23CCN(S(=O)(=O)c2ccccc2)CC3)cc1,"inconclusive [inhibitor, single point]",
O=C(OCC(=O)N1CCc2ccccc21)c1ccc(Cl)nc1,inactive,
Cc1ccccc1OCC(=O)NC(=S)Nc1cccc2cc(O)ccc12,"inconclusive [inhibitor, single point]",
COc1ncc2nc(-c3cc(F)cc(F)c3)c(=O)n(CCc3ccccc3)c2n1,inactive,

Compound,Potency,"activity change, negative = growth inhibition"
O=C(CSC(=S)N1CCOCC1)c1cc2ccccc2oc1=O,"inconclusive [inhibitor, single point]",
O=C(NCc1ccncc1)c1cccc(S(=O)(=O)Nc2ccc(F)cc2)c1,"inconclusive [inhibitor, full curve, poor fit]",
CCCn1c(NCc2ccccc2NS(=O)(=O)c2ccc(C)cc2)nc2ccccc21,"inconclusive [inhibitor, single point]",
Cc1cccc(NC(=O)C(C)Sc2nc3ccccc3c(=O)n2CCCN2CCOCC2)c1 (stereo unspecified),active: 23.1 µM,
CCc1nc(C)cn1S(=O)(=O)c1cc(Cl)c(OC)cc1Cl,"inconclusive [inhibitor, single point]",
C[C@@H](O)[C@H]1C(=O)N2C(C(=O)O)=C(S[C@@H]3CN[C@H](CNS(N)(=O)=O)C3)[C@H](C)[C@H]12,"inconclusive [inhibitor, single point]",
CC(NC(=O)OC(C)(C)C)C(=O)NC(CCC(=O)OCc1ccccc1)C(N)=O (stereo unspecified),inactive,
Cn1nc(C(=O)NCc2ccccc2)cc1C(=O)NCc1ccccc1,,inconclusive: -32.8% [inhibitor]
Cc1nn(CCCC(=O)NCc2ccccc2)c(=O)c2nn(-c3ccccc3)c(C)c12,inactive,
COc1ccc(/C=C(/NC(=O)c2ccc(Br)cc2)C(=O)Nc2cccc(C(=O)O)c2)cc1,inactive,
COC(=O)C1CCN(CC(=O)Nc2ccc(OC)c(Cl)c2)CC1,inactive,
Cc1cc(C(F)(F)F)n(-c2nc(C(=O)N/N=C/c3ccc(F)cc3)cs2)n1,active: 16.4 µM,
CC(C)(C)C1CCC(C(=O)Nc2ccccc2N2CCOCC2)CC1 (stereo unspecified),"inconclusive [inhibitor, single point]",
O=C(NCC1CCCO1)C(c1cccs1)N(Cc1ccccc1Cl)C(=O)c1ccc(-c2ccccc2)[nH]1 (stereo unspecified),"inconclusive [inhibitor, single point]",
CNC(=O)NC(=S)NC(=O)c1cccc(Cl)c1,inactive,
Cc1[nH]c2ccccc2c1SCc1ccccc1,"inconclusive [inhibitor, single point]",
NC(=O)c1nc(N2CCOCC2)nc(N2CCOCC2)n1,active: 14.1 µM,
COc1ccc(C/C(N)=N/OC(=O)c2cccs2)cc1,"inconclusive [inhibitor, partial curve]",
O=C(CSc1cn(CC(=O)N2CCCCCC2)c2ccccc12)Nc1ccccc1F,"inconclusive [inhibitor, single point]",
COCCNC(=O)C1(C)CCCN(C(=O)c2ccccc2F)C1 (stereo unspecified),inactive,
CCC(=O)N1CCc2cc(S(=O)(=O)NCCC(=O)Nc3ccc(OC)c(Cl)c3)ccc21,"inconclusive [inhibitor, single point]",
CCOc1ccccc1OC(=O)c1cc2ccccc2oc1=O,"inconclusive [inhibitor, single point]",
COc1cccc(NC(=O)CSc2nccn2-c2cccc(OC)c2)c1,"inconclusive [inhibitor, single point]",
